# Measurements reported in the supplement of paper PMC10126150.
# Values marked as one replicate rest on one cluster of the flow cell; about a third of the high ones do not repeat.
# Test system: ATP
# Experiment: switch fluorescence ratio, 500 uM ATP over buffer (Cy3 cluster intensity, sum of 5 cycles each) (fold (ratio)); higher = stronger signal-on switching upon ATP binding; sequences stand for … in TCGTCGGCAGCGTCAGATGTGTATAAGAGACAGTTTTTTTTTTTTTTTTTTTTTTTTT…TC
# Details: aptamer strand: ATP DNA aptamer (quencher-CACCTGGGGGAGTATTGCGGAGGAAGG + anchor), 100 nM annealed; ATP concentration: 500 uM; one replicate
# How it was run: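 Per cluster, summed Cy3 intensity from the target cycles was divided by that from the buffer cycles to give the fluorescence ratio, then averaged per switch-domain sequence. Clusters outside 100-1000 RFU were excluded. The Cy3-labelled switching-strand clusters, on a modified Illumina MiSeq flow-cell, were annealed to 100 nM quencher-labelled ATP aptamer and imaged in selection buffer, then after 15 min with 500 uM ATP at 22 °C, for five cycles with NaOH stripping and re-annealing between them.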
# 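Further: ATP exposure 15 min at 22 °C before imaging.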
row,Sequence,switch fluorescence ratio
1,ATATTAGGG,0.964
2,GGCGTAGGCG,1.02
3,CCGAGTCGTA,1.09
4,TATCAGACGG,0.969
5,GTCGTGGTGC,0.998
6,CACAGGGTTC,1.08
7,ACTTAATACG,1.15
8,CATTTAGTTT,0.98
9,AAACATGGTA,1.04
10,AGCTCTACAT,1.02
11,GAAGCATTAG,3.14
12,TACCTCGTG,0.986
13,GAATAGCCTG,1.06
14,ACTGACCAGA,1.1
15,GTTTATAGTG,0.949
16,ATCAAAGCAT,0.967
17,TATGAGTGTG,0.964
18,GGGTGGTGAT,1.01
19,CAAGGCGAAG,1.02
20,CGCTCTCCG,1.26
21,CAATCGTGGT,1.03
22,GCTGCCAATT,1.05

row,Sequence,switch fluorescence ratio
1,TAGTTGCAAC,0.99
2,GGAATCTCTC,1.03
3,GGGTTCTAGA,1.02
4,CATGATTTTA,0.944
5,AGAAGTAGGG,1
6,CCGGCGGT,1.03
7,GCGATTTTAG,0.962
8,CTCCTTTCTT,0.994
9,TGGAGGAGTG,0.997
10,AGCAGATCCG,1.05
11,AAGTATATAG,0.95
12,CAGGGAACAT,1.01
13,GGTATCGAAT,0.958
14,TTATGCGCGA,2.55
15,TTTGGCTCG,0.977
16,CAATGAATGT,0.967
17,ACAGTCGGAC,1.02
18,AGCCTGGCTG,0.973
19,CTGGTAGTAC,1.52
20,GCCGGAGCAT,1.37
21,CAGAAACCT,4.44
22,GGGTAGCGAT,1.16

row,Sequence,switch fluorescence ratio
1,AGCGCATTCC,1.45
2,CTACTAAGAA,1.01
3,TCAGGATTTA,1.07
4,ATTTGAATT,0.988
5,ATATGGTCC,0.985
6,ATATGGTGCA,1.05
7,TATGCGACTG,1.14
8,GCCACGATGT,1
9,CCGGCGATTC,3.86
10,TCGGCAACAA,1.33
11,TCATAATGAC,1.04
12,GACATACGAC,1.47
13,ATCGTGCCGG,1.08
14,TTATCAATCC,0.984
15,CTTGCATTAT,1.34
16,TTTGCACGGG,1.03
17,ATAGGGTAAC,1
18,GTTACTTATA,1.04
19,TCCGTGTTGA,0.993
20,TTTAAGTTAT,1.01
21,CTGGTCTCTC,1
22,GTTAAAGTTA,1.01

row,Sequence,switch fluorescence ratio
1,ATTCAACTGG,1.03
2,CAGGGTCGCG,0.981
3,CAGTTACGCG,1.02
4,TCATCGACGT,0.974
5,GCCCATGATG,0.997
6,TATTTGATTC,1.05
7,TTGCTAGGTC,1.02
8,TCTCCTCCCG,1.77
9,AGGATACTAC,1.08
10,CGCTTAACTT,1.01
11,CCGGCGTTTT,1.08
12,GAATTCAGGA,0.996
13,ACGGGTAGTA,1
14,GCATGCATTT,1.03
15,CTGTTCGTCC,1.02
16,GCATCAAGGT,1.03
17,TTGTCTGAGG,0.96
18,ATCCCGAGGC,1.28
19,AGGCCACCCG,1.11
